We go through two molecules from patent US20250387505A1, “ANTI-FGFR3 ANTIBODY CONJUGATE AND MEDICAL USE THEREOF” (GENEQUANTUM HEALTHCARE (SUZHOU) CO., LTD., priority 2022, published 2025).

For the assay, the target named is FGFR3 on AMB-BT-0050T cells (glioblastoma patient-derived cells with positive FGFR3 expression) (human (patient-derived cells)), P22607. As to the kind of experiment: cell-based or functional assay.

B1: ADC19 (A9Q conjugated with Linker-Payload 1) (antibody, human IgG1, lambda, DAR 3.62)
heavy: EVQLLESGGGLVQPGGSLRLSCAASGFTFSSYDMSWVRQAPGKGLEWVSGIYSGDGSIYYADSVKGRFTISRDNSKNTLYLQMNSLRAEDTAVYYCAKDGPMNEESRFDYWGQGTLVTVSS[human IgG1 constant region not written out]
light: QSVLTQPPSASGTPGQRVTISCSGSSSNIGNNYVSWYQQLPGTAPKLLIYADSKRPSGVPDRFSGSKSGTSASLAISGLRSEDEADYYCASWDYSLSGYVFGGGTKLTVLGQPKAAPSVTLFPPSSEELQANKATLVCLISDFYPGAVTVAWKADSSPVKAGVETTTPSKQSNNKYAASSYLSLTPEQWKSHRSYSCQVTHEGSTVEKTVAPTECGALPETGG
modifications: here or on the partner: C-terminal LPETGG: the peptide bond upstream of GG is cleaved by Sortase A and the chain is linked to the free N-terminal G3 of Linker-Payload 1 (two DXd payloads per linker)
For the molecule B1, the IC50 (nM), cytotoxicity on 3D single spheroids was 1 nM.

B2: ADC20 (A9Q conjugated with Linker-Payload 2) (antibody, human IgG1, lambda, DAR 3.58)
heavy: EVQLLESGGGLVQPGGSLRLSCAASGFTFSSYDMSWVRQAPGKGLEWVSGIYSGDGSIYYADSVKGRFTISRDNSKNTLYLQMNSLRAEDTAVYYCAKDGPMNEESRFDYWGQGTLVTVSS[human IgG1 constant region not written out]
light: QSVLTQPPSASGTPGQRVTISCSGSSSNIGNNYVSWYQQLPGTAPKLLIYADSKRPSGVPDRFSGSKSGTSASLAISGLRSEDEADYYCASWDYSLSGYVFGGGTKLTVLGQPKAAPSVTLFPPSSEELQANKATLVCLISDFYPGAVTVAWKADSSPVKAGVETTTPSKQSNNKYAASSYLSLTPEQWKSHRSYSCQVTHEGSTVEKTVAPTECGALPETGG
modifications: here or on the partner: C-terminal LPETGG: the peptide bond upstream of GG is cleaved by Sortase A and the chain is linked to the free N-terminal G3 of Linker-Payload 2 (two payloads per linker)
The molecule B2 yielded an IC50 (nM), cytotoxicity on 3D single spheroids of 0.4 nM.
